Data published in article PMC5469273, “Discovery of Novel Small-Molecule Inhibitors of LIM Domain Kinase for Inhibiting HIV-1” (Journal of Virology, 2017).

Tested on: resting CD4 T cells
Assay: Surface staining of CD25 and CD69 after CD3/CD28 activation
Type: cell-based
Conditions: short drug treatment

Q: How did the “T cell function (surface expression of CD25 or CD69 after activation)” value turn out when `COC(=O)c1ccc2[nH]c(C3CCN(c4ncnc5[nH]cc(Cl)c45)CC3)nc2c1` [Compound R10015, Methyl 2-(1-(5-chloro-7H-pyrrolo[2,3-d]pyrimidin-4-yl)piperidin-4-yl)-1H-benzo[d]imidazole-5-carboxylate] was run?
A: Its value is “did not inhibit”.
